Test results reported in article PMC10668032.
The list shows a part of the results. At the low end of the ranking the order means little.

biological target: SIX1-Q177R homeodomain (UniProt Q15475); assay: universal protein binding microarray; details: Universal all-10-mer PBM (8x60K, AMADID 030236), 300 nM GST-tagged protein, Alexa Fluor 488 anti-GST; buffer, salt, pH and temperature not stated; high values mean tight binding; most listed sequences are background and not binding sites; double strand, one strand shown

| Sequence | binding signal [E-score] |
| --- | --- |
| GACCGTCA | -0.251 |
| CCGACTCC | 0.159 |
| GACTACTA | 0.0519 |
| AGCTGTTG | -0.101 |
| GAAGTATA | -0.195 |
| CGTATGCC | 0.0278 |
| ACCAAGGA | -0.0982 |
| ATGGATGG | -0.0475 |
| CTACCGGA | -0.105 |
| ATATTCTA | -0.0462 |
| ACCGTATC | 0.135 |
| CCGTCTTA | 0.0204 |
| ACGCTACG | 0.0666 |
| AAAGTGTA | 0.36 |
| GACACTCC | 0.434 |
| CTTGAATC | -0.076 |
| TTACTCAA | -0.0971 |
| ACCGCACG | 0.118 |
| GGATGACC | 0.00064 |
| ACATTTGG | -0.0151 |
| AACTGGAG | -0.131 |
| GTCCTGAA | -0.0244 |
| CTCGAGAA | -0.027 |
| ACACCCCC | 0.487 |
| TCGAGTCA | 0.0194 |

| Sequence | binding signal [E-score] |
| --- | --- |
| ATTTTCCA | 0.0628 |
| AAACGATG | -0.342 |
| GGTTATAC | 0.118 |
| GATGAGCA | 0.0647 |
| CCACCCAG | 0.0226 |
| ACGGGACA | 0.157 |
| ACAGTCCT | -0.234 |
| CAATTGTG | 0.113 |
| CTGCTCCA | -0.137 |
| CGGCGCCA | -0.22 |
| GACCAATC | -0.171 |
| ACGCCCCT | 0.205 |
| CGTTGGAC | 0.07 |
| AAGGAGTG | 0.226 |
| GAACTCAA | -0.131 |
| ATACGCTG | -0.0646 |
| ACGTTATG | -0.129 |
| GTGAAAAA | -0.099 |
| CTCGGTCC | -0.0957 |
| AAACATTT | -0.321 |
| ATGCCACG | -0.00694 |
| CATCAGAC | 0.0762 |
| AATTAATA | -0.23 |
| CAAGTTTC | -0.176 |
| AAACCAAA | -0.139 |

| Sequence | binding signal [E-score] |
| --- | --- |
| CGACTATA | 0.0452 |
| AGAATGGG | -0.115 |
| CGATAACG | -0.0226 |
| ATGCGGTC | -0.159 |
| GCGGCGCC | 0.00679 |
| GGGATACC | 0.341 |
| CGACATAC | 0.00625 |
| AATACTTG | -0.045 |
| AGAATGTC | -0.29 |
| CGCTCGTA | 0.0568 |
| ACTTCTTC | -0.137 |
| ACAGGGTG | 0.222 |
| TAAATGTA | -0.219 |
| GTTGATTA | 0.0632 |
| CGCCGCAA | -0.121 |
| ACAATGCC | -0.0768 |
| AGTAGCTC | -0.119 |
| GGCTAAGA | -0.132 |
| CATAGGTA | 0.00382 |
| CTAAGGGA | -0.0103 |
| AAATATAT | 0.0682 |
| GATCGTGA | -0.0488 |
| GCACAGTA | -0.172 |
| ACTCCTCT | 0.174 |
| CATAAATG | -0.0598 |

| Sequence | binding signal [E-score] |
| --- | --- |
| GAGAAAAA | -0.339 |
| AAGCGCGC | -0.126 |
| ACTGTCCT | -0.04 |
| ACATTAGG | 0.0302 |
| AGACCGGA | -0.0238 |
| AAAAGTGA | -0.228 |
| CCAATTGA | -0.208 |
| CCCTACGA | 0.0823 |
| GACTCTAC | 0.0903 |
| GCCATGGA | 0.0191 |
| AATCTAGA | -0.121 |
| AGCCGCCA | -0.0871 |
| GATGGAGC | -0.00109 |
| GGATCAAA | 0.0994 |
| GTCTGTAA | 0.00823 |
| ACCGCTTC | -0.0987 |
| GTAAGTAA | -0.104 |
| GTAGGGAC | -0.0649 |
| ATTTTCGG | -0.111 |
| TTACGAAA | -0.226 |
| CAATTATG | -0.171 |
| GATTGCTA | -0.0859 |
| AACCTGGC | -0.00605 |
| ACAAAAGG | -0.151 |
| AGAAATAG | -0.184 |

| Sequence | binding signal [E-score] |
| --- | --- |
| CATCAAGC | -0.247 |
| CCCGTAGC | 0.0179 |
| CTCCTACA | 0.243 |
| CAGCGTGG | -0.0101 |
| ACAACCGT | -0.091 |
| GATCAGAA | -0.132 |
| CCGGCACG | 0.0633 |
| AGCCCACA | -0.0829 |
| AACTGTTA | -0.231 |
| ACGTTAAG | -0.196 |
| TCTTCGCA | -0.101 |
| CGACCGTC | -0.163 |
| AAGGACGC | -0.059 |
| CACGGTGA | 0.221 |
| AACTGAAT | -0.0846 |
| CGTATACG | 0.153 |
| CCTCGTCC | -0.0782 |
| CTATCGGC | -0.164 |
| GTAATCCA | -0.00487 |
| GAGTCAAC | 0.079 |
| GACCCTCA | -0.078 |
| AGACGCCT | -0.0615 |
| CTGATCAG | -0.196 |
| GCTATACC | 0.169 |
| AGCGCCCA | -0.172 |

| Sequence | binding signal [E-score] |
| --- | --- |
| ACATATTG | -0.124 |
| ATTGATAA | -0.199 |
| AGGACCTC | -0.04 |
| CTATGTCC | -0.149 |
| ATAGCTTC | -0.273 |
| CACTCGAC | 0.211 |
| CTCAAGGA | 0.0283 |
| AAGTCGTG | 0.169 |
| AACCGCCA | -0.0701 |
| GAAGGATA | 0.0385 |
| GCGGAGCA | -0.0819 |
| GAAGAAAC | -0.187 |
| CTTCCATC | -0.0574 |
| GCCTGACA | 0.141 |
| GGGTTGAA | 0.0124 |
| CCCCCCAG | 0.162 |
| AATATTTC | -0.199 |
| GAAGATTA | -0.0973 |
| CACGAATC | 0.0544 |
| GGCACGGA | 0.0118 |
| ATTTTTTC | -0.184 |
| CGGGAAGA | 0.0766 |
| CTTAATGC | -0.216 |
| GGAAGGCC | -0.271 |
| CAGCCTCC | -0.337 |

| Sequence | binding signal [E-score] |
| --- | --- |
| ACCGGGCC | -0.0757 |
| ATTCCTTG | -0.203 |
| CCTAGGCG | -0.123 |
| TCCCAAGA | -0.22 |
| GCCTCTTA | -0.147 |
| ACCCCTGC | 0.235 |
| GTCTCACA | 0.0951 |
| GAGTTACA | 0.168 |
| AAGACAGT | 0.0689 |
| CATTTGCG | -0.153 |
| GTGCGAAC | -0.00604 |
| ATACTAGC | 0.00859 |
| AAGATCGG | -0.118 |
| ATGTCACG | 0.00899 |
| GCGCGTCC | -0.0923 |
| CTAATGCA | 0.000465 |
| ACGCTCTC | -0.0979 |
| AGGTTCAG | 0.03 |
| CGCAACAC | 0.366 |
| AACCAGCT | 0.0377 |
| ACCATGAG | 0.0359 |
| CCGATATA | 0.0806 |
